Experimental data reported in patent US20200179511A1, “BCMA-TARGETING AGENT, AND COMBINATION THERAPY WITH A GAMMA SECRETASE INHIBITOR” (Novartis AG, priority 2017, published 2020).

Tested on: KMS 11
Experiment: RTCC assay, BCMA×CD3 or control CD3 bispecific antibody with or without GSI, BCMA-expressing target cells (Example 3, FIGS. 9A-9B, Table 5)
Type: cell-based, human
Conditions: KMS11
Protocol: Peripheral blood mononuclear cells (PBMCs) were isolated from the blood of healthy human donors using a Ficoll-Paque PLUS (GE Healthcare #17-1440-02) density gradient. T-cells (pan) were isolated from the PBMC fraction by negative selection (Miltenyi #130-096-535, 130-041-407, 130-042-401) and aliquots stored in liquid nitrogen in CryoStor10 solution (HemaCare #210374).
Target cells were plated 7,500 cells per well in a 384 well plate (Costar 3765). Cells were treated with or without a gamma secretase inhibitor (GSI, comparison of 3 different compounds) for 30 minutes prior to the addition of 22,500 thawed T-cells, and a serial dilution of BCMA×CD3 bispecific or negative control CD3 bispecific antibodies ranging from 100 nM to 0.1 pM. The base assay media (TCM, or T cell Medium) contains RPMI/1640, 10% FBS, 2 mM L-glutamine, 0.1 mM Non-essential amino acids, 1 mM Sodium pyruvate, 10 mM HEPES, 0.055 mM 2-mercaptoethanol (Gibco 22400089, 16140, 25030-081, 11140-050, 11360-070, 15630-080, 21985-023 respectively). The final concentration of all gamma secretase inhibitors was 2 μM. The assay was incubated at 37° C./5% CO2 for 48 hours, followed by measurements of target cell viability (BrightGlo, Promega # E2650), following vendor supplied protocols. Analysis was done using Graphpad Prism software.

B1: FP31: BCMA×CD3 bispecific antibody of Example 3; SEQ ID NOs: 1157-1160 (protein)
chain 1: DIVMTQSPDSLAVSLGERATINCKSSQSLFNVRSRKNYLAWYQQKPGQPPKLLISWASTRESGVPDRFSGSGSGTDFTLTISSLQAEDVAVYYCKQSYDLFTFGSGTKLEIKRTVAAPSVFIFPPSDEQLKSGTASVVCLLNNFYPREAKVQWKVDNALQSGNSQESVTEQDSKDSTYSLSSTLTLSKADYEKHKVYACEVTHQGLSSPVTKSFNRGEC
chain 2: EIVLTQSPGTLSLSPGERATLSCRASQSVSSSYLAWYQQKPGQAPRLLMYDASIRATGIPDRFSGSGSGTDFTLTISRLEPEDFAVYYCQQYQSWPLTFGQGTKVEIKRTVAAPSVFIFPPSDEQLKSGTASVVCLLNNFYPREAKVQWKVDNALQSGNSQESVTEQDSKDSTYSLSSTLTLSKADYEKHKVYACEVTHQGLSSPVTKSFNRGEC
chain 3: EVQLLESGGGLVQPGGSLRLSCAASGFTFSSYPMSWVRQAPGKGLEWVSAIGGSGGSLPYADSVKGRFTISRDNSKNTLYLQMNSLRAEDTAVYYCARYWPMDIWGQGTLVTVSSASTKGPSVFPLAPCSRSTSESTAALGCLVKDYFPEPVTVSWNSGALTSGVHTFPAVLQSSGLYSLSSVVTVPSSNFGTQTYTCNVDHKPSNTKVDKTVERKCEVECPECPAPPVAGPSVFLFPPKPKDTLMISRTPEVTCVVVAVSHEDPEVQFNWYVDGVEVHNAKTKPREEQFNSTFRVVSVLTVVHQDWLNGKEYKCKVSNKGLPSSIEKTISKTKGQPREPQVYTLPPSREEMTKNQVSLTCEVKGFYPSDISVEWESNGQPENNYKTTPPMLDSDGSFFLYSKLTVDKSRWQQGNVFSCSVMHEALHNHYTQKSLSLSPGK
chain 4: EVQLVESGGGLVQPGGSLRLSCAASGFTFSDYYMTWVRQAPGKGLEWVAFIRNRARGYTSDHNASVKGRFTISRDNAKNSLYLQMNSLRAEDTAVYYCARDRPSYYVLDYWGQGTTVTVSSASTKGPSVFPLAPCSRSTSESTAALGCLVKDYFPEPVTVSWNSGALTSGVHTFPAVLQSSGLYSLSSVVTVPSSNFGTQTYTCNVDHKPSNTKVDKTVERKCRVRCPRCPAPPVAGPSVFLFPPKPKDTLMISRTPEVTCVVVAVSHEDPEVQFNWYVDGVEVHNAKTKPREEQFNSTFRVVSVLTVVHQDWLNGKEYKCKVSNKGLPSSIEKTISKTKGQPREPQVYTLPPSREEMTKNQVSLTCLVKGFYPSDISVEWESNGQPENNYKTTPPMLDSDGSFFLYSRLTVDKSRWQQGNVFSCSVMHEALHNHYTQKSLSLSPGK
In the case of B1, the “effect of gamma secretase inhibitor treatment on potency of bispecific antibody in RTCC” value (GSI 2 μM, 48 hours, FIG. 9A) is reported as “enhance the potency” and the “improvement of bispecific antibody potency by GSI” value (three separate gamma secretase inhibitors) is reported as ~50 fold.
